In article PMC4336329 (PLoS ONE, 2015):
Out of some 310,000 compounds screened, about 2,200 (0.71%) showed an effect of 50% or more. The effect is printed as a negative number. This is one part of the list.

Biological target: human ether-à-go-go-related gene (hERG) potassium channel (human, UniProt Q12809)
Assay: primary screen, population patch clamp on CHO cells stably expressing hERG

Sequence of human ether-à-go-go-related gene (hERG) potassium channel (Q12809 whole entry, looked up): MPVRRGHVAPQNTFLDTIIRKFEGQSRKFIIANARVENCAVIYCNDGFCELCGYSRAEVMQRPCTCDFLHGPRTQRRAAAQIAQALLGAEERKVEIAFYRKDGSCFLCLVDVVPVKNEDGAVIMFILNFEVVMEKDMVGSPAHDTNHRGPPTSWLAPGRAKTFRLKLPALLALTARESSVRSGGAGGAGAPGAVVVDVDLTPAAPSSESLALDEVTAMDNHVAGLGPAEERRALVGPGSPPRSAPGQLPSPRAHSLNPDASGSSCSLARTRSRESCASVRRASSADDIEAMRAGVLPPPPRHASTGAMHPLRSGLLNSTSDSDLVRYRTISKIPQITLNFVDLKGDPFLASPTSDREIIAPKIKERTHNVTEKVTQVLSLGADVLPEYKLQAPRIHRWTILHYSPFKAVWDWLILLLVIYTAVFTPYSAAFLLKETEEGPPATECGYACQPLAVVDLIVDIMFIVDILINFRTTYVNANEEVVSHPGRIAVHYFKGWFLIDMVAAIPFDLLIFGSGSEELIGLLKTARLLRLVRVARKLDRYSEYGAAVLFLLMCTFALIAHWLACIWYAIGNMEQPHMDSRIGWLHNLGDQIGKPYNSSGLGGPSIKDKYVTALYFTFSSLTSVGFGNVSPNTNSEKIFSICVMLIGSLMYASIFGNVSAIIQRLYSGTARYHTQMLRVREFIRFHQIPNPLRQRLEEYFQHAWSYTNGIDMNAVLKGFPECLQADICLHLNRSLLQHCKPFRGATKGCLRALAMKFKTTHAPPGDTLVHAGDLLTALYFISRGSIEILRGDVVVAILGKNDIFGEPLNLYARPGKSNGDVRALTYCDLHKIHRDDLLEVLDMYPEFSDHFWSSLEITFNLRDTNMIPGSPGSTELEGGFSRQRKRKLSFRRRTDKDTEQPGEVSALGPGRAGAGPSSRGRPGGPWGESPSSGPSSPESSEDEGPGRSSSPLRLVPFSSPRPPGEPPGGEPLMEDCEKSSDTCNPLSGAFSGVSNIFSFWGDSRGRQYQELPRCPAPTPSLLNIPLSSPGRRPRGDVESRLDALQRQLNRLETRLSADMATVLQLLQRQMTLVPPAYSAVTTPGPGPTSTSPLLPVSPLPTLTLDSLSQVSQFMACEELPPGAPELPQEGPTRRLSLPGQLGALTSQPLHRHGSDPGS

SMILES	hERG current change (%, negative = inhibition) at 1uM
C=CC[C@]12C[C@@H](OC)C(=O)C=C1O[C@@H](c1ccc(OC)c(OC)c1)[C@H]2C	12.1%
COc1ccc(-n2ncc3c(N4CCC(C(N)=O)CC4)ncnc32)cc1	0.311%
C=CCn1c(SCC(=O)NCCCO)nc2sc3c(c2c1=O)CCC3	9.79%
Cc1n[nH]c(C)c1NC(=O)c1cc([N+](=O)[O-])ccc1Cl	14.6%
CCc1cc2cc(C)ccc2nc1SCC(=O)Nc1cc(C)on1	4.09%
CN1CCN(/C=C(\C#N)S(=O)(=O)c2ccc(Cl)cc2)CC1	6.59%
COc1ccccc1NC(=O)CCSc1nc(C)cc(C)n1	3.73%
O=C1OC(c2ccccc2)=C/C1=C/N1CCOCC1	8.29%
O=C(Nc1ccc2c(c1)OCCO2)c1ccoc1	11%
CCCCC(=O)Nc1cccc(NC(=S)NC(C)=O)c1	5.2%
Cc1ccc(CNc2ccc(CNc3ncn[nH]3)cc2)cc1	-0.44%
Cc1nn2c(=O)cc(CSCC(=O)Nc3ccccc3Cl)nc2s1	14.3%
CC(=O)c1ccc(NC(=O)N2C3CCC2CC(O)(c2cccnc2)C3)cc1 (stereo not drawn)	8.63%
O=C(CCl)Nc1cccn2ncnc12	14.1%
COC(=O)Cn1nc(-c2ccccc2)c2ccccc2c1=O	16.4%
Cc1c(Nc2ccc(C=O)cc2)c(=O)n(-c2ccccc2)n1C	-1.99%
CN(C(=O)CSc1nnc(CN2CCCC2)n1Cc1ccccc1)c1ccccc1	-4.75%
CNC(=O)c1ccc(NC(=O)CC2SC(N3CCCC3)=NC2=O)cc1 (stereo not drawn)	1.69%
COc1ccc(OC)c(C(=O)NC(CC(N)=O)c2ccc(NCc3ccccn3)c([N+](=O)[O-])c2)c1 (stereo not drawn)	12.6%

SMILES	hERG current change (%, negative = inhibition) at 1uM
Cn1c(N2C(=O)CC(Cc3ccccc3)C2=O)nc2ccccc21 (stereo not drawn)	7.68%
Nc1ccn(CC(=O)NCCc2ccccn2)c(=O)n1	12.6%
COc1cc(CN2CCNC(=O)C2CC(=O)NCc2csc(C(C)C)n2)cc(OC)c1 (stereo not drawn)	11.4%
Cc1ccc(OC(=O)c2cc(=O)c3ccccc3o2)cc1	10.3%
COCCCNS(=O)(=O)c1ccc(S(=O)(=O)N2CCCC2)cc1	0.13%
O=C(O)c1ccccc1-c1nc2ccccc2c(=O)n1O	12.4%
COc1ccc(/C=N/NC(=O)c2cc3c(ccc4ccccc43)o2)cc1OC	11.8%
Cc1ccc(C)c(NC(=O)CCC(=O)NNC(=S)Nc2ccccc2)c1	9.09%
COc1ccccc1NC(=O)CCn1c(=S)oc2ccccc21	7.72%
CC(c1ccccc1)N1C(=O)c2ccc(C(=O)NCc3cccnc3)cc2C1=O (stereo not drawn)	11.6%
Cc1sc2ncnc(SCc3ccc(C(=O)O)cc3)c2c1C	2.06%
CC(=O)Nc1ccccc1C(=O)C(=O)Nc1ccc(F)c(Cl)c1	13.6%
COc1ccc(CNS(=O)(=O)CCNC(=O)c2ccc3c(c2)OCO3)cc1	-0.528%
CCN(CC)CCN1C(=O)C2C(C(=O)Nc3ccc(C(C)C)cc3)C3C=CC2(O3)C1C(=O)NC1CCCCC1 (stereo not drawn)	15.2%
CCOCC(=O)OCC(=O)NC12CC3CC(CC(C3)C1)C2	12.1%
COC(=O)C(N)Cc1ccc(Cl)cc1.Cl (stereo not drawn)	5.98%
Cc1ccc(S(=O)(=O)N2CCCCC2)cc1NC(=O)[C@@H]1CCCN1C(=O)c1cccs1	6.9%
CC(=O)c1cccc(NC(=O)CCNS(=O)(=O)c2cccc(C(C)=O)c2)c1	6.02%
COc1ccc(-c2csc(-c3ccc(O)cc3)n2)cc1	7.34%

SMILES	hERG current change (%, negative = inhibition) at 1uM
COC(=O)c1ccc(NC(=O)COc2ccccc2OC)cc1	11.6%
Cc1ccccc1-c1noc(-c2ccccc2C(=O)NCc2ccco2)n1	11.8%
COc1ccccc1C(=O)NNC(=O)c1cccc(C)c1	17.8%
ClCCOCCCl	13%
COc1ccc(CN=C(Nc2ccccc2)SC2CC(=O)N(C)C2=O)cc1 (stereo not drawn)	4.69%
NC(=O)c1sc2nc(-c3ccccc3)c3c(c2c1N)CCCC3	13.8%
Cc1ccc(NC(=O)CSc2nnc(CCCCCNC(=O)OC(C)(C)C)o2)c(C)c1	-15.7%
COC(=O)C1=C(C)N(C)C(C)=C(C(=O)OC)C1c1ccncc1	7.38%
CCOC(=O)c1cc(C#N)c(N2CCN(C(=O)c3ccccc3)CC2)nc1C(F)(F)F	-0.955%
CC(=O)N1c2ccc(S(=O)(=O)N3CCC(C(=O)NC4CCCC(C)C4C)CC3)cc2CC1C (stereo not drawn)	7.55%
CCOc1ccc(Nc2nc(-c3cccnc3)cs2)cc1	21%
CCOc1ccc(N(Cc2cc3cc(C)ccc3[nH]c2=O)C(=O)COC)cc1	6.75%
C(#CCN1CCOCC1)COCCCOC(c1ccccc1)c1ccccc1	5.38%
Cc1ccnc(OC(C(=O)O)C(OCc2ccccc2)(c2ccccc2)c2ccc(C(F)(F)F)cc2)n1 (stereo not drawn)	16.8%
CCNC(=S)Nc1ccc(Cc2nc3ccccc3[nH]2)cc1	10.2%
COc1ccccc1N1CCN(C(=O)c2cccc(N3C(=O)NC4CC3(C)Oc3c(OC)cccc34)c2)CC1 (stereo not drawn)	9.13%
CCOC(=O)N1CCC(n2c(SCC(=O)Nc3ccccc3OC)nc3ccccc3c2=O)CC1	-7.24%
CCCN(C(=O)Cn1ncc2c(=O)oc3ccccc3c21)c1cccc(C)c1	5.92%
O=C(NCCO)c1ccc2nc(-c3ccco3)c(-c3ccco3)nc2c1	10.2%
